In all, about 33,000 sequences were measured (“E-score (-0.5 to 0.5)”: median about -0.036, highest 2% from about 0.37 on). The list shows a part of the results.
Molecular target: T1, Yer064c (UniProt P40041)
T1 sequence: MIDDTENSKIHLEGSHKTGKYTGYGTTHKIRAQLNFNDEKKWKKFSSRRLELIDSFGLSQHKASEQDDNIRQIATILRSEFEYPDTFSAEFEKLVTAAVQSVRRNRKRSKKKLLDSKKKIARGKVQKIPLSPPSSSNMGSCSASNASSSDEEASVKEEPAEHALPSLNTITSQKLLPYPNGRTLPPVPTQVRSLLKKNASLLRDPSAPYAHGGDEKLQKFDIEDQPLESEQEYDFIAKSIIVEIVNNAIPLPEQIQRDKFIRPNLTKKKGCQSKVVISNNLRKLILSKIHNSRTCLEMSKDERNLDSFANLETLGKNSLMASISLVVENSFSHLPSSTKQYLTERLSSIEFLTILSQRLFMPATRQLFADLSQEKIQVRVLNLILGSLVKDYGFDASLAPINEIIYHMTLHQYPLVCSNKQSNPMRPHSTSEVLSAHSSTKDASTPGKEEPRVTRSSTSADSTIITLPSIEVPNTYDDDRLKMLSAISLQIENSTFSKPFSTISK
Assay: PBM E-score (8-mer binding enrichment) (E-score (-0.5 to 0.5)); higher = stronger / more preferred TF binding; most listed sequences are background and not binding sites
Conditions: protein concentration: 200 nM; construct: GST-full length
How it was run: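 Detection of bound protein used fluorescent anti-GST, with scans normalised by masliner. The proteins were GST-tagged yeast transcription factors applied at about 100-200 nM to universal all-10-mer Agilent arrays made double-stranded by primer extension. Each ungapped eight-base word, pooled with its reverse complement, was scored with an E-score from the Universal PBM Analysis Suite.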

Row | Sequence | PBM E-score
1 | CATGTTCC | -0.138
2 | CTGCTCTA | 0.102
3 | ATAGATGG | -0.175
4 | GCGTGCTA | -0.266
5 | CGGCACGA | -0.0913
6 | ACACCTAG | 0.0458
7 | CAATTATA | 0.0981
8 | CGCCTTTA | 0.0724
9 | GCTTGTGA | 0.0795
10 | CCAGTCTA | 0.022
11 | CGGTAGTA | 0.0891
12 | ACGGGTGC | -0.187
13 | GCTGCCTA | -0.0932
14 | AAATCTAC | -0.0431
15 | CGCCAACA | -0.0208
16 | CTTCTACA | -0.029
17 | GCAGGGAA | -0.155
18 | CTTGTAAA | -0.0979
19 | AAAACCGT | -0.0271
20 | AATCGGAA | 0.203
21 | AGCTTCCT | -0.174
22 | GGGGAGGA | -0.109

Row | Sequence | PBM E-score
23 | ATGGTTGG | -0.106
24 | AGTAATGG | -0.0012
25 | ATTTCGTG | 0.056
26 | AGGACCCG | -0.268
27 | GAACCTTA | -0.0529
28 | AACGCAGT | 0.0574
29 | ATAGCCGA | -0.0195
30 | TCGTCCCA | -0.168
31 | CTAACAGC | 0.0203
32 | AATATATA | -0.112
33 | CAGCCCTA | -0.101
34 | ATTTGTAA | 0.181
35 | ATGCTGTA | -0.0827
36 | GAGTATCC | -0.0247
37 | CATAGACC | -0.1
38 | GGGTTCAC | -0.0282
39 | GGGATCTA | -0.134
40 | ATGATCAG | 0.147
41 | CAGTAGTA | 0.111
42 | GAGTATCA | 0.233
43 | TCGCATCA | 0.0502
44 | ATGTGAAA | 0.00958

Row | Sequence | PBM E-score
45 | ACCACCAA | -0.119
46 | ACAATTCT | -0.0167
47 | CTCAGTGA | 0.235
48 | AAGTGCTC | -0.239
49 | GCTGTAGA | -0.0534
50 | ATCCGCAT | -0.0618
51 | CTAGAACC | -0.0227
52 | CGATCTCA | -0.0277
53 | AAACTTGT | 0.101
54 | GGGCCGAA | -0.287
55 | CCCCGAGG | -0.164
56 | CGGTTAGA | -0.0283
57 | ACATTGCA | -0.103
58 | ACGTTCTG | -0.0716
59 | AACGCCCG | -0.389
60 | CATGAAGC | 0.00225
61 | GATGGTCC | -0.202
62 | ACGCAATA | -0.0491
63 | GACGTCCA | -0.215
64 | TATGTTGA | 0.152
65 | CCAGGACA | -0.19
66 | ACACTTAC | 0.0232

Row | Sequence | PBM E-score
67 | AGTCAAGG | 0.392
68 | GCTCGAAC | -0.138
69 | GCGAGGAA | -0.117
70 | GGCTCCAC | -0.0967
71 | AACAGAGG | -0.221
72 | ACTCACAC | 0.364
73 | GTCCAAAC | -0.0715
74 | AAATAGAC | -0.104
75 | GTACCATA | -0.0203
76 | AGAGGTTG | -0.195
77 | CGTACGTC | -0.241
78 | ATAAAGCG | 0.126
79 | AGTTCGCG | -0.108
80 | GATGAGAA | 0.0561
81 | CCGTCCGC | -0.3
82 | AAGCAACA | -0.101
83 | CAGGGTGC | -0.0756
84 | AGATAGAG | -0.0446
85 | CAAGTTCC | -0.135
86 | GGCCCCGA | -0.205

Reference: the supplement of paper PMC3334620
